# Assay results reported in PubChem BioAssay AID743279 (National Center for Advancing Translational Sciences (NCATS), 2014).
# About 17,000 (4.7%) of roughly 360,000 compounds were called active. The shares of active, inactive and inconclusive entries below differ from those in the screen. No stated cut-off is given here; in the data, active means activity change below about -50%; inconclusive means mostly about -30% to -49%; inactive means weaker than that.
# Test: qHTS for Inhibitors of Inflammasome Signaling: IL-1-beta AlphaLISA Primary Screen
# Details: THP-1 LPS/ATP IL-1B secretion, 16 h; at 57.5 µM, hits give low values
# Procedure, shortened: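 Secreted IL-1B measured by AlphaLISA bead assay after 16 h compound exposure of THP-1 cells; compounds (final up to 57.5 uM) added 1 h before LPS (250 ng/mL) and ATP (1.25 mM) stimulation; lower signal means less secretion.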
# On the % scale 0 is the no-effect control and ±100 the full control effect.
row,Compound,activity change
1,Cc1ccccc1NC(=O)NCC1CCN(Cc2cccc(Cl)c2)CC1,inconclusive: -32.3%
2,O[C@H]1C[C@H](c2ccc(Cl)cc2)N(Cc2cccs2)C[C@@H]1n1cc(C2CC2)nn1,inconclusive: -38.1%
3,CC(C)(C)N1CC(C(=O)Nc2cccc(Cl)c2Cl)CC1=O (stereo not drawn),active: -69.4%
4,Cc1ccc(CNC(=O)CNS(=O)(=O)c2ccc3c(c2)C(C)(C)C(=O)N3C)cc1,inconclusive: -36.2%
5,CN(C)c1ccc(N=C/C=C2/N(C)c3ccccc3C2(C)C)cc1,active: -63.9%
6,Cc1ccc(N(CC(=O)Nc2ccc(C)cc2C)S(=O)(=O)N2CCCC2)cc1,inconclusive: -35.8%
7,CCN(CC)S(=O)(=O)c1ccc(C)c(NC(=O)CNCc2ccccc2OC)c1,inconclusive: -43.6%
8,Cc1cccc(N2CCN(C(=O)c3ccc(NC(=O)C4CCCO4)cc3)CC2C)c1 (stereo not drawn),inactive: -13.7%
9,Cc1nnc(N2CCCC(C(=O)NCc3ccc(OC(C)C)cc3)C2)c2nn(-c3ccccc3)c(C)c12 (stereo not drawn),inconclusive: -33.2%
10,O=C(Nc1ccc(S(=O)(=O)N2CCN(c3ccccc3)CC2)cc1)c1cccs1,inconclusive: -33.2%
11,CCOC(=O)C1=C(N)Oc2cc(O)ccc2C1c1ccc([N+](=O)[O-])cc1 (stereo not drawn),active: -69.8%
12,CCOC(=O)c1ccc(N2C(=O)c3n[nH]c(C)c3C2c2ccc(OC)cc2OC)cc1 (stereo not drawn),active: -58.2%
13,Cc1csc2c(N3CCN(C(=O)Nc4ccccc4)CC3)ncnc12,inconclusive: -41.5%
14,OC[C@@H]1CN(Cc2ccc(F)cc2)C[C@H](n2cnc3c(NC4CCCC4)ncnc32)O1,inactive: 0%
15,O=C(NCCCCCCNC(=O)c1ccncc1)c1ccncc1,inactive: -3.16%
16,Cc1cc(O)ccc1Nc1cc(-c2cccc(N)c2)ncn1,inconclusive: -37.9%
17,Cc1cc(C)c(S(=O)(=O)Nc2nnc(C(C)C)s2)c(C)c1,inactive: 16.2%
18,O=C1CC(C(=O)N(c2ccccc2)C(C(=O)NC2CCCC2)c2ccncc2)CS1 (stereo not drawn),inconclusive: -38.6%
19,O=C(c1ccc(F)cc1)N1CCN(c2cc(N3CCCCC3)c(F)cc2[N+](=O)[O-])CC1,active: -82.8%
20,CCn1cc(CNC(=O)c2cc(Cl)ccc2OC)c(C)n1,inactive: -2.07%

row,Compound,activity change
1,CC(NC(=O)c1ccc([N+](=O)[O-])o1)C12CC3CC(CC(C3)C1)C2 (stereo not drawn),active: -136%
2,CCOc1cc(/C=C\c2[nH]c(=O)[nH]c(=O)c2[N+](=O)[O-])ccc1OC(C)CC (stereo not drawn),active: -92.4%
3,O=C(CN(Cc1ccco1)C(=O)c1ccccc1)Nc1ccc(Cl)c(Cl)c1,inconclusive: -48.3%
4,CC1COCC(C)N1C1=C(Cl)C(=O)c2ccccc2C1=O (stereo not drawn),inconclusive: -44.7%
5,O=C1CCN(CCc2ccccc2)CCN1CCSc1ccc(Br)cc1,inactive: -16.3%
6,CCOC(=O)c1c(C)[nH]c(N=Nc2ccc(C)cc2C)c1C,inconclusive: -42.4%
7,CC(=O)OC/C=C(\C)CCC=C(C)C,inactive: -10.8%
8,CC(/C=C/c1ccco1)=N/NC(=O)Cc1cccs1,inactive: -7.57%
9,NCC1CC2c3ccccc3C1c1ccccc12 (stereo not drawn),active: -77.7%
10,CCOC(=O)c1cc(-c2ccc(Cl)cc2)nc2c1c(C)nn2CCC#N,inconclusive: -49.4%
11,CC(=O)c1ccc(NC(=O)CSc2ccc(-c3sc(C)nc3C)nn2)cc1,inactive: -3.81%
12,O=C(/C=C/c1cccs1)c1ccc(Br)cc1,inconclusive: -39.7%
13,COc1cccc(-c2cnc(C(O)c3cc(C)ccc3C)[nH]2)c1 (stereo not drawn),inconclusive: -48.4%
14,CC(NC1=CC(=O)c2cccnc2C1=O)C(O)c1ccccc1 (stereo not drawn),active: -99.8%
15,CN(C(=O)CSc1nnn(C)n1)c1ccccc1,inconclusive: -37.4%
16,COc1ccc(NC(=O)NCCCN2CCC(Cc3ccccc3)CC2)cc1,inconclusive: -33.5%
17,Cc1ccc(NC(=O)CCCNC(=O)c2ccc(Cl)cc2)c(O)c1,inactive: 74%
18,Cc1ccc(-n2nnnc2SC(C)C(=O)NCC(=O)Nc2ccc(F)c(F)c2F)c(C)c1 (stereo not drawn),inconclusive: -30.7%
19,COc1ccc(N2CCN(C3CCCN(S(=O)(=O)c4ccc(C)cc4C)C3)CC2)cc1 (stereo not drawn),inconclusive: -36.8%
20,Cc1ccccc1NCCNc1ccccc1C,inconclusive: -39.5%

row,Compound,activity change
1,CCCC(=O)N1CCC1(C)C(=O)NCc1ccc(C(C)C)cc1 (stereo not drawn),inactive: -18%
2,CN(CC(=O)Nc1cccc(F)c1)C(=O)CC1CCCCC1,inactive: -9.56%
3,CC1(C)CCC[C@]2(C)C(CS(=O)c3ccccc3)=C(C=O)CC[C@@H]12 (stereo partly drawn),inconclusive: -37.1%
4,Cc1cc(NC(=S)N(CCN2CCCCC2)Cc2ccco2)ccc1Cl,active: -97.5%
5,O=C(Nc1nccs1)c1c(O)c2c([nH]c1=O)CCCC2,inactive: 34.5%
6,Cc1ccc(C(=O)CCC(=O)OCc2nnc(-c3ccccc3)o2)cc1,inactive: -1.6%
7,O=C(CCN1CCCCC1)N1CCc2c([nH]c3ccccc23)C1c1cccnc1 (stereo not drawn),inconclusive: -40.9%
8,Cc1c(C(=O)Nc2cccnc2Cl)oc2ccccc12,inactive: 15.7%
9,N#CNC(=Nc1ccc(Cl)cc1)Oc1ccccc1,active: -55.2%
10,O=C(NC(=S)Nc1cccc(-c2ccc(CO)o2)c1)c1cccs1,inconclusive: -34.2%
11,COc1ccc(-c2noc(C3CCCN(C(=O)c4ccc(F)cc4)C3)n2)cc1 (stereo not drawn),inconclusive: -31.6%
12,CC(C)(C)n1cnc2cc(NCc3ccc(Br)cc3)ccc21,inconclusive: -41.6%
13,COc1ccc(C)cc1NC(=O)Nc1ccccc1,inconclusive: -31%
14,COc1ccc(NC(=O)CSc2nnc(Cc3cccn3C)n2-c2ccc(OC)cc2)cc1,inconclusive: -33.1%
15,CS(=O)(=O)c1ccc(C(=O)OC2CCOC2=O)cc1[N+](=O)[O-] (stereo not drawn),inconclusive: -42.9%
16,Nc1ccc(-c2c3ccc(=O)cc-3oc3cc(O)ccc23)cc1C(=O)O,inactive: -8.88%
17,COc1ccc(NC(=O)Nc2ccc3c(c2)OCO3)c(C)c1,inconclusive: -32.1%
18,N#C/C(=C/c1ccc(-c2ccc(Br)cc2)o1)C(=O)NC1CCCCC1,active: -54.5%
